{
  "source": "patent US20250236654A1",
  "about": "“C-TYPE NATRIURETIC PEPTIDE ENGRAFTED ANTIBODIES” (Bayer Aktiengesellschaft, priority 2018, published 2025)",
  "molecules": {"B1": {"name": "TPP-10847: ANP engrafted antibody construct, CDRH2 (antibody, listed as Homo sapiens)", "heavy": "EVQLLESGGGLVQPGGSLRLSCAASGFTFSSYAMSWVRQAPGKGLEWVSAISGTSASLAITGPDGGSGGSLRRSSCFGGRMDRIGAQSGLGCNSFRYGSDRFSGSKSGGSTYYADSVKGRFTISRDNSKNTLYLQMNSLRAEDTAVYYCAKLTGAEYFQHWGQGTLVTVSS[letters of human IgG1 constant region left out]", "light": "QSVLTQPPSVSGAPGQRVTISCTGSSSNIGAGYDVHWYQQLPGTAPKLLIYGNSNRPSGVPDRFSGSKSGTSASLAITGLQAEDEADYYCQSYDSSLSGVVFGGGTKLTVLGQPKAAPSVTLFPPSSEELQANKATLVCLISDFYPGAVTVAWKADSSPVKAGVETTTPSKQSNNKYAASSYLSLTPEQWKSHRSYSCQVTHEGSTVEKTVAPTECS", "modifications": "NP engrafted HC"}, "B2": {"name": "TPP-11156: BNP (Hum28aa) engrafted human IgG1 antibody construct, CDRH2 (antibody, listed as Homo sapiens)", "heavy": "EVQLLESGGGLVQPGGSLRLSCAASGFTFSSYAMSWVRQAPGKGLEWVSAISGSVVVTSHQAPGGGSGGMVQGSGCFGRKMDRISSSSGLGCKVLRRGEKKKLKSLAYGSTYYADSVKGRFTISRDNSKNTLYLQMNSLRAEDTAVYYCAKLTGAEYFQHWGQGTLVTVSS[letters of human IgG1 constant region left out]", "light": "B1 light", "modifications": "NP engrafted HC", "notes": "BNP (Hum28aa) engrafted human IgG1 antibody construct, CDRH2"}, "B3": {"name": "TPP-9902: BNP (Hum28aa) engrafted human IgG1 antibody construct, CDRH3 (antibody, listed as Homo sapiens)", "heavy": "EVQLLESGGGLVQPGGSLRLSCAASGFTFSSYAMSWVRQAPGKGLEWVSAISGSGGSTYYADSVKGRFTISRDNSKNTLYLQMNSLRAEDTAVYYCTSVHQETKKYQSSPDGGSGGMVQGSGCFGRKMDRISSSSGLGCKVLRRGSYSYTYNYEWHVDVWGQGTLVTVSS[letters of human IgG1 constant region left out]", "light": "B1 light", "modifications": "NP engrafted HC", "notes": "BNP (Hum28aa) engrafted human IgG1 antibody construct, CDRH3"}, "B4": {"name": "TPP-10274: ANP engrafted antibody construct, CDRH3 (antibody, listed as Homo sapiens)", "heavy": "EVQLLESGGGLVQPGGSLRLSCAASGFTFSSYAMSWVRQAPGKGLEWVSAISGSGGSTYYADSVKGRFTISRDNSKNTLYLQMNSLRAEDTAVYYCTSVHQETKKYQSSPDGGSGGSLRRSSCFGGRMDRIGAQSGLGCNSFRYGSYSYTYNYEWHVDVWGQGTLVTVSS[letters of human IgG1 constant region left out]", "light": "B1 light", "modifications": "NP engrafted HC"}, "B5": {"name": "TPP-10290: ANP engrafted antibody construct, CDRH3 (antibody, listed as Homo sapiens)", "heavy": "[letters of about 100 residues left out]VHPNPNPNPNSPDGGSGGSLRRSSCFGGRMDRIGAQSGLGCNSFRYGSYNPNPNPNPHVDVWGQGTTVTVSS[letters of human IgG1 constant region left out]", "light": "B1 light", "modifications": "NP engrafted HC"}, "B6": {"name": "TPP-10294: ANP engrafted antibody construct, CDRH1 (antibody, listed as Homo sapiens)", "heavy": "EVQLLESGGGLVQPGGSLRLSCAASGFTFGSGSGSGSGSGSPDGGSGGSLRRSSCFGGRMDRIGAQSGLGCNSFRYGSYGSGSGSGSGSGMSWVRQAPGKGLEWVSAISGSGGSTYYADSVKGRFTISRDNSKNTLYLQMNSLRAEDTAVYYCAKLTGAEYFQHWGQGTLVTVSS[letters of human IgG1 constant region left out]", "light": "B1 light", "modifications": "NP engrafted HC"}, "B7": {"name": "TPP-13054: ANP engrafted antibody construct, CDRH1 (antibody, listed as Homo sapiens)", "heavy": "EVQLLESGGGLVQPGGSLRLSCAASGFTFGSGSGSGGSGGSLRRSSCFGGRMDRIGAQSGLGCNSFRYGGSGGSGSGSGMSWVRQAPGKGLEWVSAISGSGGSTYYADSVKGRFTISRDNSKNTLYLQMNSLRAEDTAVYYCAKLTGAEYFQHWGQGTLVTVSS[letters of human IgG1 constant region left out]", "light": "B1 light", "modifications": "NP engrafted HC"}},
  "target": "T1, human NPRA (hNPRA) (Homo sapiens, UniProt P16066)",
  "T1 construct": "expressed in transfected cells",
  "T1 sequence (P16066 33-1061)": "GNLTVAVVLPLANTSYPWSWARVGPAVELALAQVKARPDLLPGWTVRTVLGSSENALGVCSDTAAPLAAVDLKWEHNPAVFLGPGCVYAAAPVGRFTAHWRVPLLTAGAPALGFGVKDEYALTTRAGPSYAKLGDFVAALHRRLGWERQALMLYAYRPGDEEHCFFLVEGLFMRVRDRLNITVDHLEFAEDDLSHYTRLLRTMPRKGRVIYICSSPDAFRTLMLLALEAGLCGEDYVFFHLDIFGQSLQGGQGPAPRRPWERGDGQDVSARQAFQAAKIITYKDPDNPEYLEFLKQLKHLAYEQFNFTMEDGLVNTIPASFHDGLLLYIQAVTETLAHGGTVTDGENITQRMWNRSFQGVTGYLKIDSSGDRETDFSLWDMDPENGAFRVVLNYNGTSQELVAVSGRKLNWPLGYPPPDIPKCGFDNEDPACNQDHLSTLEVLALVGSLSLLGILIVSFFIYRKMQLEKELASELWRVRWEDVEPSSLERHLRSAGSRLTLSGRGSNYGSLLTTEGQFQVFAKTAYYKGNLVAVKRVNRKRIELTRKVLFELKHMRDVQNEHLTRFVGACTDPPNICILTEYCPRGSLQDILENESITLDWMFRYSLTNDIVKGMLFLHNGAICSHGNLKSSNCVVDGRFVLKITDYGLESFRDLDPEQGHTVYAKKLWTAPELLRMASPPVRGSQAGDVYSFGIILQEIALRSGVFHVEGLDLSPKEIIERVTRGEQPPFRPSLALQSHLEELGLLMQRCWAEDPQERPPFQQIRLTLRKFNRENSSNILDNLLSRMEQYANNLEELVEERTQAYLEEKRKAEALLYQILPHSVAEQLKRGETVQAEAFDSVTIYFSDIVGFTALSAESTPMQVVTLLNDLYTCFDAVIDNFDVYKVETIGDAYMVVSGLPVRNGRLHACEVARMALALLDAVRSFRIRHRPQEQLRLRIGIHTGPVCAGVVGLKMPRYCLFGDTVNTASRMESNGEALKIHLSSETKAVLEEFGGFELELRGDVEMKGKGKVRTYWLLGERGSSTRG",
  "assay": "cGMP quantification assay (HTRF) on stable hNPRA-CHO k1 cells (rcs, ics, pcs samples)",
  "format": "cell-based",
  "conditions": "for activity (qualit. activity, excerpt of Table 7): ANP engrafted antibody constructs, summarized qualitative assessment from average rel. log EC50 vs reference TPP-5661 on hNPRA cells; for activity rcs: raw compound samples (rcs) on stable hNPRA-CHO k1 cells, reference TPP-5661 (#117) gives 36%, n.a. = not active; for qualit. activity on hNPRA: BNP engrafted antibody constructs, purified compound samples (pcs), dilution series in quadruplets; for activity on hNPRA cells: purified compound samples",
  "procedure": "All activities shown in Tables 7 and 8 were measured on cells with heterologous over expression of human NPRA (hNPRA) by use of a cGMP quantification assay conducted according to manufacturer's instructions (cisbio; 62GM2PEH). In brief, the assay quantifies cGMP in buffered solution or cell-culture supernatants based on the competition between cGMP produced by the cell as result of the NPRA stimulation through the (natriuretic peptide) sample and d2 labelled cGMP for binding to a Cryptate labelled antibody. Sample cGMP and d2 labeled cGMP compete for binding to a limited number of sites on Cryptate labeled anti-cGMP antibodies, and consequently, HTRF® specific fluorescent signal (i.e. energy transfer) is inversely proportional to the concentration of cGMP in the sample.\nDose-response curve data were analyzed with GraphPad Prism (version 7.00 for Windows, GraphPad Software, La Jolla California USA) and EC50 were fitted according to Y=Bottom+(Top-Bottom)/(1+10∧((Log EC50-X)*HillSlope)) applying constraints for bottom, top and slope (shared value for all data sets of the respective experiment).\nThe raw compound sample activity on stable hNPRA-CHO k1 cells was first assessed by comparison to the negative control TPP-5657 and to a positive sample, in particular TPP-5661. Controls and res were tested in quadruplets in two concentrations with a relative dilution factor of 5 aiming for a fluorescent signal (s) in the dynamic range of the assay. […] Values listed in Table 7, columns “activity res” and “stdev activity res”, represent the average of the results for the two concentrations and the respective standard deviation. Res signals less than half of the signal of the reference compound TPP-5661 (36%) were assessed as not active (n.a.).\nThe activity of several raw compound samples on stable hNPRA-CHO k1 cells was reassessed by comparison to reference sample TPP-5661 in 2.5-fold dilution series (8 concentrations) starting with a 5-fold dilution. The “log EC50” fit value as activity measure of the res was set in relation to the corresponding value of the reference res TPP-5661 by calculating the delta “log EC50” _compound −“log EC50” _TPP-5661; resulting values are listed in Table 7, column “rel. activity res”. […] All samples were applied in quadruplets.\nThe activity of isolated compound samples on stable hNPRA-CHO k1 cells was assessed by EC50 determination and comparison to reference sample TPP-5661. Samples were tested in 2.5-fold dilution series from 80 nM to 0.13 nM. The log EC50 fit value as activity measure of the ics was set in relation to the corresponding value of the reference ics TPP-5661 (−8.8) by calculating the delta log EC50_compound−log EC50_TPP-5661; resulting values are listed in Table 7, column “rel. log EC50 ics”. All samples were applied in quadruplets.\nThe activity of purified compound samples on stable hNPRA-CHO k1 cells was assessed in multiple experiments by EC50 determination and comparison to reference sample TPP-5661. Samples were tested in dilution series at least in quadruplets. […] The log EC50 fit value as activity measure of the pcs was set in relation to the corresponding value of the reference TPP-5661 in the respective experiment (in average −9.2, standard deviation 0.5) by calculating the delta log EC50_compound−log EC50_TPP-5661.",
  "key": {"[1]": {"conditions": "summarized qualitative assessment from average rel. log EC50 (hNPRA-CHO k1 and hNPRA-HEK293 data), n.e = not active, very low expression"}, "[2]": {"conditions": "summarized qualitative assessment of activity relative to reference TPP-5661"}},
  "data": [
    {"molecule": "B1", "values": [
      {"measurement": "activity (qualit. activity, excerpt of Table 7)", "value": "++ (relative log EC50<0.7 were assessed as very active)"},
      {"measurement": "activity rcs", "value": "n.a. (Res signals less than half of the signal of the reference compound TPP-5661 (36%) were assessed as not active (n.a.))"},
      {"measurement": "activity as raw compound sample (res)", "setting": "stable hNPRA-CHO k1 cells, raw compound samples", "value": "no activity"},
      {"measurement": "qualit. activity", "setting": "[1]", "value": "++ (relative log EC50<0.7 were assessed as very active)"}
    ]},
    {"molecule": "B2", "values": [
      {"measurement": "qualit. activity on hNPRA", "setting": "stable hNPRA-CHO k1 cells", "value": "++ (relative log EC50<0.7 were assessed as very active)"},
      {"measurement": "activity on hNPRA cells", "setting": "stable hNPRA-CHO k1 cells", "value": "significant activity"}
    ]},
    {"molecule": "B3", "values": [
      {"measurement": "qualit. activity on hNPRA", "setting": "stable hNPRA-CHO k1 cells", "value": "++ (relative log EC50<0.7 were assessed as very active)"},
      {"measurement": "activity on hNPRA cells", "setting": "stable hNPRA-CHO k1 cells", "value": "significant activity"}
    ]},
    {"molecule": "B4", "values": [
      {"measurement": "activity rcs", "value": 71, "unit": "%"},
      {"measurement": "qualit. activity", "setting": "[2]", "value": "++ (relative log EC50<0.7 were assessed as very active)"}
    ]},
    {"molecule": "B5", "values": [
      {"measurement": "activity (qualit. activity, excerpt of Table 7)", "value": "++ (relative log EC50<0.7 were assessed as very active)"},
      {"measurement": "activity rcs", "value": 84, "unit": "%"},
      {"measurement": "qualit. activity", "setting": "[2]", "value": "++ (relative log EC50<0.7 were assessed as very active)"}
    ]},
    {"molecule": "B6", "values": [
      {"measurement": "activity (qualit. activity, excerpt of Table 7)", "value": "++ (relative log EC50<0.7 were assessed as very active)"},
      {"measurement": "activity rcs", "value": 41, "unit": "%"},
      {"measurement": "qualit. activity", "setting": "[1]", "value": "++ (relative log EC50<0.7 were assessed as very active)"}
    ]},
    {"molecule": "B7", "values": [
      {"measurement": "activity (qualit. activity, excerpt of Table 7)", "value": "++ (relative log EC50<0.7 were assessed as very active)"},
      {"measurement": "qualit. activity", "setting": "[1]", "value": "++ (relative log EC50<0.7 were assessed as very active)"}
    ]}
  ]
}
